# Several values for one entry are separate records, joined by “and”; a condition that tells them apart may be missing. Equal values may be shown once. This list was built around the results that the source calls inconclusive (neither active nor inactive); the mix of calls is not that of the screen. Potencies of inconclusive entries are doubtful fits and often do not repeat. More than one record can exist for a structure, and the calls need not agree. Activity calls are given as the source filed them. Unless noted, calls come from the whole dose curve; as a rule, active = well fitted curve in the direction sought with a large enough effect in the repeat runs; inconclusive = weak or mixed curves; inactive = no such curve, though single readings can be large; an effect the other way counts as inactive or inconclusive.
# Experiments:
# [1] = qHTS assay to identify small molecule agonists of the endoplasmic reticulum stress response signaling pathway - cell viability counter screen (AID 1159517; calls by dose curve; note: nearly all actives have a fitted effect of over 50% in size)
# Procedure, shortened: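 ESRE-bla HeLa cells (1,500/well) were plated overnight at 37 C and exposed to compounds for 5 hr. After the 2 hr beta-lactamase substrate read, CellTiter-Glo went into the same wells, and luminescence was read after 30 min at room temperature.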
# [2] = qHTS assay to identify small molecule antagonists of the retinoid-related orphan receptor gamma (ROR-gamma) signaling pathway - cell viability counter screen (AID 1159520); note: nearly all actives have a fitted effect of over 50% in size
# Procedure, shortened: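 Cytotoxicity was read from cellular ATP (CellTiter-Glo luminescence) after 16 hr at 37 C with 1 uM doxycycline induction. The inducer was added 2 hr after compound transfer to Tet-on ROR gamma CHO cells.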
# [3] = biological target: Nuclear receptor ROR-gamma (Homo sapiens) (UniProt P51449); test: qHTS assay to identify small molecule antagonists of the retinoid-related orphan receptor gamma (ROR-gamma) signaling pathway (AID 1159521; note: nearly all actives have a fitted effect of over 50% in size)
# Procedure, shortened: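 Antagonist read-out: drop in luminescence (ONE-Glo) from an RORE-LUC reporter in CHO cells with doxycycline-inducible ROR-gamma; 2 hr compound pretreatment, 1 uM doxycycline, 16 hr incubation at 37 C.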
# [4] = qHTS assay to identify small molecule agonists of the AP-1 signaling pathway - cell viability counter screen (AID 1159525; calls by dose curve; note: nearly all actives have a fitted effect of over 55% in size)
# Procedure, shortened: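 Intracellular ATP by Cell Titer Glo luminescence (30 min, RT) in the same ME-180 AP-1-bla wells after the 5 h compound exposure at 37 °C. Normalised to tetra n-octyl ammonium bromide and DMSO controls.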
# [5] = biological target: Retinoic acid receptor RXR-alpha (Homo sapiens) (UniProt P19793); test: qHTS assay to identify small molecule agonists of the RXR signaling pathway (AID 1159527; calls by dose curve; note: nearly all actives have a fitted effect of over 35% in size; for activation: % is set by controls: 0 for no effect and ±100 for the full control effect); conditions: HEK293T RXRa-UAS-bla, beta-lactamase ratio, 16 h; activation: at 76.8 µM (top of the series) unless noted
# Procedure, shortened: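 Agonist-mode beta-lactamase reporter assay: HEK 293T RXR-alpha-UAS-bla cells treated 16 hr at 37 C with compounds, 9-cis retinoic acid as positive control. LiveBLAzer FRET substrate, 405 nm excitation, 460/530 nm emission.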
# [6] = qHTS assay to identify small molecule antagonists of the retinoid acid receptor (RAR) signaling pathway - cell viability counter screen (AID 1159551); note: nearly all actives have a fitted effect of over 35% in size
# Procedure, shortened: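 C3RL4 RARE-luciferase line; cpds + retinol 1 uM final, 6 h, 37 C/5% CO2; CellTiter-Glo ATP luminescence, 30 min RT.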
# [7] = qHTS assay to identify small molecule antagonists of the retinoic acid receptor (RAR) signaling pathway (AID 1159552; note: nearly all actives have a fitted effect of over 50% in size)
# Procedure, shortened: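 Luminescent RARE reporter read-out in C3RL4 cells: 6 hr co-treatment at 37 C of test compounds with retinol at 1 uM final. Cells plated overnight beforehand; luciferase reagent incubated 30 min at room temperature before reading.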
# [8] = qHTS assay to identify small molecule agonists of the retinoic acid receptor (RAR) signaling pathway (AID 1159553); conditions: C3RL4 RARE luciferase reporter, agonist, 6 h; activation: at 73.3 µM (top of the series) unless noted; for activation: % is set by controls: 0 for no effect and ±100 for the full control effect
# Procedure, shortened: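 RARE-luc C3RL4 cells; overnight attachment 37 C/5% CO2; compound (DMSO) 6 hr; luciferase reagent, 30 min RT; luminescence read-out.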
# [9] = qHTS assay to identify small molecule antagonists of the estrogen related receptor (ERR) signaling pathway from Tox21 library - cell viability counter screen (AID 1224834); note: nearly all actives have a fitted effect of over 30% in size
# Procedure, shortened: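 Multiplexed viability counter screen in ERR cells: 17.5 h compound exposure at 37 C, CellTiter-Fluor added, 30 min at 37 C/5% CO2, fluorescence read.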
# [10] = qHTS assay to identify small molecule agonists of the RXR signaling pathway - cell viability counter screen (AID 1159529); note: nearly all actives have a fitted effect of over 50% in size
# Procedure, shortened: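 CellTiter-Glo luminescence gave viability in the wells also read for beta-lactamase. Cells (RXR-alpha-UAS-bla HEK 293T, 2% charcoal-stripped FBS medium) had 5 hr plating, then 16 hr compound exposure at 37 C; tetraoctyl ammonium bromide served as positive control.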
# [11] = qHTS assay to identify small molecule agonists of the constitutive androstane receptor (CAR) signaling pathway - cell viability counter screen (AID 1224836); note: nearly all actives have a fitted effect of over 45% in size
# Procedure, shortened: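 Cell viability multiplexed with the CAR agonist screen: CellTiter-Fluor fluorescence after 23 hr at 37 C. HepG2-CYP2B6-hCAR cells got compounds at 15 concentrations with PK11195 at 0.75 uM final.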
# [12] = qHTS assay to identify small molecule antagonists of the constitutive androstane receptor (CAR) signaling pathway - cell viability counter screen (AID 1224837); note: nearly all actives have a fitted effect of over 45% in size
# Procedure, shortened: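 Read-out: CellTiter-Fluor fluorescence after 23 hr at 37 C/5% CO2. Cells: HepG2 double-stable for hCAR and CYP2B6-2.2kb. Compounds tested at 15 concentrations in the presence of CITCO, final concentration 50 nM.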
# [13] = qHTS assay to identify small molecule agonists of the AP-1 signaling pathway (AID 1159526; calls by dose curve); conditions: ME-180 (cervical carcinoma) AP-1-bla reporter, beta-lactamase FRET ratio, 5 h; activation: at 76.8 µM (top of the series) unless noted
# [14] = biological target: Luciferin 4-monooxygenase (Photinus pyralis) (UniProt P08659); test: qHTS assay to identify small molecule inhibitors of firefly luciferase (AID 1224835); note: nearly all actives have a fitted effect of over 25% in size
# Procedure, shortened: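 Inhibition of purified Photinus luciferase is measured by luminescence. Substrate levels (D-luciferin, ATP) sit at their KM values. Each compound is tested in a concentration series.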
# Potency is the fitted concentration of half-maximal effect; tags give direction and shape of the fitted curve or compound fluorescence and quenching.
# Sequence of UniProt P08659 (P08659 whole entry, looked up): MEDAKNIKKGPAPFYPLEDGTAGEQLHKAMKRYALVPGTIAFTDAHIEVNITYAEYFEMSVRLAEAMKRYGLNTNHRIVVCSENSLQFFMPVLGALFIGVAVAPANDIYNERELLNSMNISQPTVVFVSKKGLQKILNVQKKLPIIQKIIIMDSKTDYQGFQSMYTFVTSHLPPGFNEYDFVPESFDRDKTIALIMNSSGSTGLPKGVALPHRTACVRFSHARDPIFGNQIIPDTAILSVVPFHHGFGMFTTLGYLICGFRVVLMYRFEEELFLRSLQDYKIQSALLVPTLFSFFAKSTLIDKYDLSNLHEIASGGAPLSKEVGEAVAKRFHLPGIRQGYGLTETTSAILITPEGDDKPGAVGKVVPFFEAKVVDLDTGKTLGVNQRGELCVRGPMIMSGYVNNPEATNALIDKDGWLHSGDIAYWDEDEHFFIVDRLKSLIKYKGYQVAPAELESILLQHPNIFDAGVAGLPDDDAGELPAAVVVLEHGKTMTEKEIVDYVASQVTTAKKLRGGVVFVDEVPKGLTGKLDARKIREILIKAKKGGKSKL
# Sequence of UniProt P19793 (P19793 whole entry, looked up): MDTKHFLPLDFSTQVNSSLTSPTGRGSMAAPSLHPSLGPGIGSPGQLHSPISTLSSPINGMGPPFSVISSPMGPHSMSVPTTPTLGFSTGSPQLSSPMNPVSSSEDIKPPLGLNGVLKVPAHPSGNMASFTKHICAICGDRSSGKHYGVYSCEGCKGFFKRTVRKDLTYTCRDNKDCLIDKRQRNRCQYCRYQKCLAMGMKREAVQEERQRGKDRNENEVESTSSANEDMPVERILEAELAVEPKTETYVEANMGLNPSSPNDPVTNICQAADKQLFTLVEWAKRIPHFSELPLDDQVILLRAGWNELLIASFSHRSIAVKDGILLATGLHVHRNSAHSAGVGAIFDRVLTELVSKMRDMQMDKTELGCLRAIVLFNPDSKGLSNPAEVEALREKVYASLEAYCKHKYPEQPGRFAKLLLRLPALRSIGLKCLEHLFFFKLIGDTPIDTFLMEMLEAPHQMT
Compound,Potency [1],Potency [2],Potency [3],Potency [4],Potency [5],Potency [6],Potency [7],Potency [8],Potency [9],Potency [10],activation [8],Potency [11],Potency [12],Potency [13],Potency [14],activation [5]
Clc1ccc(C(c2ccccc2Cl)C(Cl)(Cl)Cl)cc1 (centres undefined),"active: 43.9 µM and inconclusive: 36.1 µM [cytotoxic, single point]","inconclusive: 77.4 µM [cytotoxic, single point] and inconclusive: 45.1 µM [cytotoxic, single point]","inconclusive: 48.9 µM [inhibitor, partial curve] and active: 40.2 µM","inconclusive: 55.3 µM [cytotoxic, single point]","inconclusive: 12.4 µM [inhibitor, partial curve] and inconclusive: 36.1 µM [cytotoxic, single point]","inconclusive: 50.6 µM [cytotoxic, partial curve, poor fit]","inconclusive: 61.5 µM [inhibitor] and inconclusive: 40.2 µM [inhibitor, single point]","inconclusive: 61.5 µM [inhibitor] and inconclusive: 45.1 µM [inhibitor, single point]","inconclusive: 77.4 µM [cytotoxic, single point] and inconclusive: 50.6 µM [cytotoxic, single point]",,,,,,,
Clc1ccc(COC(Cn2ccnc2)c2ccc(Cl)cc2Cl)cc1 (centres undefined),"inconclusive: 45.7 µM [cytotoxic] and active: 61.4 µM and inconclusive: 26.8 µM [cytotoxic, single point]",inconclusive: 29.8 µM [cytotoxic],active: 45.3 µM and active: 30.5 µM and active: 23.7 µM,inconclusive: 45.7 µM [cytotoxic],,"inconclusive: 57 µM [cytotoxic, single point] and inconclusive: 68.3 µM [cytotoxic, single point] and inconclusive: 33.5 µM [cytotoxic, single point]",,"inconclusive: 64 µM [inhibitor, single point] and inconclusive: 68.3 µM [inhibitor, single point]",active: 45.3 µM and active: 48.4 µM and active: 26.6 µM,"active: 32.3 µM and active: 38.7 µM and inconclusive: 26.8 µM [cytotoxic, single point]",inconclusive: 1.81% [phenotype inactive],"inconclusive: 29.8 µM [cytotoxic, single point]",active: 40.4 µM and active: 43.1 µM and active: 26.6 µM,,,
CCCCCCCCCCCCCC[P+](CCCCCC)(CCCCCC)CCCCCC,active: 31 µM and active: 27.8 µM,"inconclusive: 3.85 µM [cytotoxic, full curve]",,,,active: 27.4 µM and active: 27.5 µM,,,"inconclusive: 1.53 µM [cytotoxic, full curve]","active: 8.75 µM and active: 15.6 µM and inconclusive: 218 nM [cytotoxic, partial curve, poor fit]",,"inconclusive: 13.7 µM [cytotoxic, full curve]","active: 12.2 µM and active: 13.8 µM and inconclusive: 4.85 µM [cytotoxic, full curve]","inconclusive: 6.19 µM [falling, full curve] and inconclusive: 12.4 µM [falling, full curve]","inconclusive: 89.8 µM [inhibitor, single point] and inconclusive: 90.1 µM [inhibitor, single point] and inactive",
[F][Sn]([c]1ccccc1)([c]1ccccc1)[c]1ccccc1,active: 5.49 µM,active: 0.864 µM,,,"inconclusive: 549 nM [fluorescent, partial curve]",active: 17.2 µM,active: 0.243 µM,"inconclusive: 1.37 µM [inhibitor, full curve]",,,,,,inconclusive: 13.8 µM,,
ClC1=C(Cl)C2(Cl)C3C(Cl)C(Cl)CC3C1(Cl)C2(Cl)Cl (centres undefined),"inconclusive: 54.8 µM [cytotoxic, single point] and active: 49 µM",inconclusive: 68.6 µM [cytotoxic],,active: 24.5 µM and active: 34.7 µM,"inconclusive: 38.8 µM [cytotoxic, partial curve] and inconclusive: 54.9 µM [cytotoxic, single point]",inconclusive: 68.6 µM [cytotoxic],active: 54.5 µM,"inconclusive: 38.5 µM [inhibitor, partial curve] and inconclusive: 77 µM [inhibitor, single point]",inconclusive: 68.6 µM [cytotoxic],,,,,"inconclusive: 24.5 µM and inconclusive: 30.9 µM [cytotoxic, partial curve]",,
Oc1ccc(Cl)cc1Cc1ccccc1,"active: 49 µM and inconclusive: 11.1 µM [cytotoxic, full curve, poor fit] and inactive","inconclusive: 17.4 µM [cytotoxic, full curve]",,"active: 54.9 µM and active: 44.2 µM and inconclusive: 26.8 µM [cytotoxic, single point]",,"inconclusive: 61.1 µM [cytotoxic, partial curve] and active: 55.1 µM","inconclusive: 27.3 µM [inhibitor, partial curve] and active: 27.6 µM",,,"active: 49 µM and active: 24.8 µM and inconclusive: 21.3 µM [cytotoxic, partial curve]",,inconclusive: 69.4 µM [cytotoxic],inconclusive: 55.1 µM [cytotoxic],,"inconclusive: 79.6 µM [inhibitor, partial curve, poor fit] and inconclusive: 36 µM [inhibitor, partial curve]",
CC(=O)[O][Hg][c]1ccccc1,active: 485 nM and active: 692 nM and active: 2.13 µM,active: 304 nM and active: 969 nM and active: 422 nM,,active: 1.37 µM and active: 2.45 µM and active: 4.25 µM,,active: 5.4 µM and active: 13.7 µM and active: 16.8 µM,,"inconclusive: 856 nM [inhibitor, full curve] and inconclusive: 1.37 µM [inhibitor, full curve] and inconclusive: 4.73 µM [inhibitor, full curve]",,active: 1.72 µM and active: 1.95 µM and active: 2.39 µM,,active: 2.41 µM and active: 4.33 µM and active: 5.96 µM,active: 2.71 µM and active: 4.33 µM and active: 5.31 µM,,,
Oc1ccc(C(c2ccc(O)cc2)(C(F)(F)F)C(F)(F)F)cc1,"inconclusive: 54.7 µM [cytotoxic, single point] and active: 49 µM","inconclusive: 68.2 µM [cytotoxic, partial curve, poor fit] and inconclusive: 54.5 µM [cytotoxic, partial curve, poor fit]",,"inconclusive: 54.7 µM [cytotoxic, single point] and inconclusive: 61.7 µM [cytotoxic]",,,,,"inconclusive: 77 µM [cytotoxic, single point]","inconclusive: 54.9 µM [cytotoxic, single point]",,"inconclusive: 68.2 µM [cytotoxic, single point]","inconclusive: 60.8 µM [cytotoxic, single point]","inconclusive: 43.4 µM [falling, partial curve] and inconclusive: 49 µM [falling, partial curve]",,
CC(C)N1C(=O)N(c2ccccc2)CSC1=NC(C)(C)C,inactive,"inconclusive: 68.6 µM [cytotoxic, partial curve, poor fit]",,inconclusive: 54.9 µM [cytotoxic],,,,,"inconclusive: 48.6 µM [cytotoxic, partial curve]","inconclusive: 54.9 µM [cytotoxic, single point]",,"inconclusive: 68.6 µM [cytotoxic, partial curve, poor fit]",,"inconclusive: 54.9 µM [falling, single point]",,inconclusive: -33.8%
CCCOCC(=Nc1ccc(Cl)cc1C(F)(F)F)n1ccnc1,active: 34.6 µM,active: 61.1 µM,,"inconclusive: 48.9 µM [cytotoxic, single point]",,"inconclusive: 54.4 µM [cytotoxic, partial curve, poor fit]","inconclusive: 54.4 µM [inhibitor, partial curve]",inactive,active: 54.4 µM,"inconclusive: 54.9 µM [cytotoxic, single point]",,,,"inconclusive: 38.9 µM [falling, partial curve]",,
Brc1ccc(Oc2ccccc2)cc1,"inconclusive: 56.3 µM [cytotoxic] and inconclusive: 776 nM [cytotoxic, single point]","inconclusive: 70.3 µM [cytotoxic, single point]",,"inconclusive: 63.2 µM [cytotoxic, single point]",inconclusive: 22400 nM,"inconclusive: 70.3 µM [cytotoxic, single point]",,,,active: 31.7 µM,,,,"inconclusive: 39.9 µM [cytotoxic, partial curve]",,

# — PubChem BioAssay (Tox21)
